Laboratory results reported in PubChem BioAssay AID662 (National Center for Advancing Translational Sciences (NCATS), 2007).
The campaign covered roughly 71,000 compounds. About 1,800 (2.5%) were called active. Inconclusive means that the source gave no clear call. Such entries were picked first, then a sample of the others. Calls come from the whole dose curve; as a rule, active = well fitted activation curve with a large enough effect in the signal ratio, with a control signal flat (not every such curve was filed as active); inconclusive = small, poorly fitted or top-dose-only effect, or effect the other way, or a change in a side signal; inactive = flat fitted curve, though single readings scatter; the % refers to the signal ratio. Where the call is inconclusive, the potency comes from a doubtful curve fit.

experiment: Cell signaling CRE-BLA (Fsk stim); details: CHO CRE-bla reporter (cAMP response element driving beta-lactamase), forskolin EC10, beta-lactamase ratio; activity change, negative = inhibition: at 38.2 µM (top of the series) unless noted; for activity change, negative = inhibition: % of control where 0% means no effect
In short: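 CRE-bla CHO cells stimulated with EC10 NKH 477 (water-soluble forskolin) and compound titrations, 3 h at 37C; beta-lactamase read with CCF4 after 2 h at room temperature. Activity from 460/530 nm emission ratio, AC50 values for positive or negative modulation.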
Potency is the fitted concentration of half-maximal effect; tags give direction and shape of the fitted curve.

Row | Compound | Potency | activity change, negative = inhibition
1 | C/C(NC(=O)c1ccccc1)=C1/C(=O)CC2C1C2(C)C (stereo not drawn) | inconclusive: 2 µM [rising, partial curve, poor fit] | –
2 | Cc1ccc2oc(-c3ccc(NC(=O)CC(C)C)cc3)nc2c1 | – | inactive: 2.04%
3 | C=C[C@H]1CN2CC[C@@H]1C[C@@H]2[C@@H](O)c1ccnc2ccc(OC)cc12 | – | inactive
4 | COc1cccc(C2NC(=O)NC(C)=C2C(=O)Nc2cc(OC)ccc2OC)c1 (stereo not drawn) | – | inconclusive: 21.1%
5 | Cc1ccc(Cn2nnc3c(=O)n(CC(=O)c4ccccc4)cnc32)cc1 | – | inactive: 8.81%
6 | COCCn1c(-c2ccccc2)nc2oc3ccccc3c(=O)c2c1=O | inconclusive: 10 µM [rising, partial curve] | –
7 | CN1CCc2c(sc(/N=C/c3cccs3)c2C(N)=O)C1 | active: 10 µM | –
8 | Cc1ccc2c(c1)[nH]c1c(N3CCN(Cc4ccccc4)CC3)ncnc12 | inconclusive: 12.6 µM [falling, single point] | –
9 | CCC1(C)N(O)C(C)(C)C(c2ccc(OC)cc2)=[N+]1[O-] (stereo not drawn) | – | inactive: 1.03%
10 | CC(=O)c1ccc(OCCCC(=O)OCc2nnc(-c3ccc(Cl)cc3)o2)cc1 | inconclusive: 3.98 µM [falling, single point] | –
11 | O=c1cc(-c2ccccc2)oc2cc(O)cc(O)c12 | – | inconclusive: -28.5% [at 17.1 µM]
12 | c1csc(CNc2ncnc3ccc(-c4ccc5c(c4)OCO5)cc23)c1 | inconclusive: 25.1 µM [rising, single point] | –
13 | CCn1c2ccccc2c2cc(C3C(C#N)=C(N)Oc4n[nH]c(COC)c43)ccc21 (stereo not drawn) | inconclusive: 12.6 µM [rising, partial curve] | –
14 | O=C(O)CCC(=O)N1CCc2cc(S(=O)(=O)N3CCCCC3)ccc21 | inconclusive: 1.26 µM [rising, partial curve] | –
15 | Nc1ccc(N=Nc2ccc(-c3ccc(O)cc3)cc2)c2ccc(S(=O)(=O)O)cc12 | – | inactive: -15.2% [at 7.6 µM]
16 | CCCC(=O)NC(C)c1nc2ccccc2n1C(C)C (stereo not drawn) | – | inactive: -2.63%
17 | CS(=O)(=O)N(CC(=O)Nc1cccnc1)c1ccc2c(c1)OCCO2 | – | inconclusive: 11.8%
18 | CN1CCN(c2ncnc3ccc(-c4cccc(C#N)c4)cc23)CC1 | inconclusive: 12.6 µM [rising, single point] | –
19 | CCN(CC)CCn1c(SCC(=O)NCc2ccco2)nc2c(sc3ccccc32)c1=O | – | inconclusive: -1.34%
20 | C=CCN=c1sc(C(=O)OC)cc(=O)n1CC=C | inconclusive: 6.31 µM [rising, partial curve] | –
21 | CCNc1nc2c(c(=O)[nH]c(=O)n2C)n1Cc1ccc(F)cc1 | active: 10 µM | –
22 | CSc1ncnc2c1ncn2CC(=O)[C@H]1CC[C@H]2[C@H]3CCC4=CC(=O)CC[C@@]4(C)[C@@H]3CC[C@@]12C | – | inconclusive: 27.4% [at 7.6 µM]
23 | Cc1nc2ccccc2c2oc(C(=O)N3CCN(C4CCCCC4)CC3)cc12 | – | inconclusive: 21.2%
24 | CCN(CC)C(=S)SSC(=S)N(CC)CC | – | inactive
25 | COC(=O)c1ccccc1 | – | inactive: -2.2%
26 | O=c1[nH]c(C2CCCN(S(=O)(=O)c3ccc(F)cc3)C2)nc2c1nnn2Cc1ccccc1 (stereo not drawn) | inconclusive: 12.6 µM [rising, single point] | –

Row | Compound | Potency | activity change, negative = inhibition
27 | N#Cc1cccc(NC(=O)N2CCC(c3nc4c(nnn4Cc4cccc(Cl)c4)c(=O)[nH]3)CC2)c1 | inconclusive: 25.1 µM [rising, single point] | –
28 | O=C(CCCCCn1c(SCC(=O)c2ccccc2)nc2ccccc2c1=O)NCc1ccco1 | inconclusive: 12.6 µM [rising, partial curve] | –
29 | Cc1ccc(OCC(=O)Nc2ccc3c(c2)nc(CCN2CCOCC2)n3C)cc1 | inconclusive: 10 µM [rising, partial curve] | –
30 | COc1ccc(-n2c(=O)c3ccccc3n(CC(=O)NC3CCCCC3)c2=O)c(OC)c1 | – | inconclusive: -16.5%
31 | COc1cccc(-c2nn(C)c3sc(C(=O)NCc4ccc5c(c4)OCO5)cc23)c1 | active: 2.51 µM | –
32 | O=c1cnc2cnc(Nc3ccccc3)nc2n1Cc1ccc(F)cc1 | inconclusive: 20 µM [rising, single point] | –
33 | COc1ccccc1NS(=O)(=O)c1ccc(NC(=O)c2nc3ncccn3n2)cc1 | – | inconclusive: -1.94%
34 | COC(=O)[C@H]1C[C@@H]1[C@H](NC(=O)OCc1ccccc1)c1ccccc1 | – | inactive: 13.8%
35 | COc1ccc(CN2CCCC2C(=O)Nc2ccc(OC)c(OC)c2)cc1OC (stereo not drawn) | inconclusive: 10 µM [rising, partial curve] | –
36 | Cc1ccc(C)c(N2CCN(C(=O)CCNC(=O)Cn3ccc4ccccc4c3=O)CC2)c1 | – | inconclusive: -8%
37 | COc1ccccc1NC(=O)N(Cc1ccco1)Cc1cc2c(C)ccc(C)c2[nH]c1=O | – | inconclusive: -14.4%
38 | COc1ccc(Cl)cc1NC(=O)c1ccoc1C | – | inconclusive: 2.06% [at 7.6 µM]
39 | Cc1cc(C)n2nc(SCc3cc(=O)n4c(C)cccc4n3)nc2n1 | active: 0.631 µM | –
40 | COc1ccc(-c2cc(C(F)(F)F)nc(N3CCOCC3)n2)cc1OC | inconclusive: 12.6 µM [rising, partial curve] | –
41 | Cc1nc2sc3c(c2c(=O)[nH]1)CCC3 | – | inconclusive: 22.9%
42 | O=C(NC1CCCc2ccccc21)c1cccnc1 (stereo not drawn) | – | inconclusive: -17.5%
43 | COc1ccc(-c2cc(C(F)(F)F)n3nc(C)cc3n2)cc1 | active: 10 µM | –
44 | CCCC1(CCC)NC(=O)N(CC(=O)Nc2cccc(OC)c2)C1=O | – | inactive: -7.88%
45 | Cn1c(=O)c2c(nc(SCCN3CCOCC3)n2Cc2ccccc2)n(C)c1=O | – | inactive: 20.1%
46 | CCCNC(=O)N1CCN(S(=O)(=O)c2ccc(C)cc2)CC1 | inconclusive: 0.0501 µM [rising, full curve, poor fit] | –
47 | Cc1ccccc1Cn1c(=O)n(CCCC(=O)NCc2ccco2)c(=O)c2ccccc21 | inconclusive: 2 µM [rising, partial curve] | –
48 | COc1cc2cc(C(=O)O)n(C)c2c(OC)c1OC | – | inactive: 0.189%
49 | Fc1c(F)c(F)c(CSc2nc3ccccc3[nH]2)c(F)c1F | – | inactive: -10.9%
50 | CCOC(=O)N1CCC(NC(=O)CCc2nc(-c3ccccc3F)no2)CC1 | – | inactive: -23%
51 | COc1ccc(-n2ccnc2SCC(=O)Nc2ccc(OC)cc2OC)cc1 | – | inconclusive: 22%
52 | O=c1c2cc(Cl)ccc2oc2nc3n(c(=O)c12)CCCS3 | – | inactive: 10.2%

Row | Compound | Potency | activity change, negative = inhibition
53 | CC(C)(C)OC(=O)[C@H]([C@@H]1N[C@@H](C(=O)O)C(C)(C)S1)N1C(=O)c2ccccc2C1=O | – | inactive: 3.42% [at 7.6 µM]
54 | CCOc1ncccc1C(=O)OCc1cc(=O)n2c(n1)sc1ccccc12 | – | inactive: 4.32%
55 | CCn1cc(SCC(=O)Nc2cc(C)on2)c2ccccc21 | – | inactive: -7.37%
56 | COc1ccccc1-n1nnnc1SCc1cc2c(cc1Br)OCO2 | inconclusive: 6.31 µM [rising, partial curve] | –
57 | O=c1c(-c2cc(F)cc(F)c2)nc2cnc(N3CCOCC3)nc2n1-c1ccccc1 | inconclusive: 0.2 µM [rising, full curve] | –
58 | Cc1nc2ccccc2c2c1C(=O)N(C(C)C)C2=O | inconclusive: 3.16 µM [rising, single point] | –
59 | COc1cc(C(Nc2ccccn2)c2ccc3ccc(C)nc3c2O)cc(OC)c1O (stereo not drawn) | – | inconclusive: -27%
60 | Cc1ccc(C(=O)c2cn[nH]c2-c2cc(Cl)ccc2O)cc1 | inconclusive: 12.6 µM [rising, single point] | –
61 | CCOc1ccc(Cc2nnc(N)s2)cc1OCC | – | inconclusive: 26.6%
62 | CC(C)(C)c1csc(NC(=O)Cn2c(=O)oc3ccccc32)n1 | – | inactive: 9.52%
63 | COC(=O)c1ccccc1NC(=O)c1ccc(F)cc1 | inconclusive: 12.6 µM [rising, partial curve] | –
64 | O=C1CSC(c2ccccn2)N1c1cccc(Cl)c1 (stereo not drawn) | inconclusive: 10 µM [falling, single point] | –
65 | COc1ccc(N2CCN(C(=O)c3ccc(C)c(Cl)c3)CC2)cc1 | – | inconclusive: 3.69%
66 | N#CC1=C(SCC(=O)c2cc3ccccc3oc2=O)NC(=O)C(C#N)C12CCCC2 (stereo not drawn) | – | inactive: -29.8%
67 | CCCc1nnc(NC(=O)C2CCCO2)s1 (stereo not drawn) | – | inactive: 0.871%
68 | CN(c1nc2c(c(=O)n(C)c(=O)n2C)n1CC(=O)c1ccccc1)C1CCCCC1 | – | inconclusive: -8.45%
69 | O=C(Nc1cnc2sccn2c1=O)c1ccccc1Cl | – | inconclusive: -31%
70 | COC(=O)c1ccccc1NC(=O)C1CCCN(c2nnc(-n3cccc3)s2)C1 (stereo not drawn) | inconclusive: 10 µM [rising, single point] | –
71 | CC(C)C[C@@H](CC(=O)N[C@@H](CCCN)CC(=O)N[C@@H]1CCNC[C@H]1C(=O)N[C@H](CC(=O)N[C@@H](CCC(=O)O)CC(=O)O)CC(C)C)NC(=O)[C@@H]1CNCC[C@H]1N | – | inactive: -12.9%
72 | c1cnc(N2CCN(c3ncnc4c3oc3ccccc34)CC2)nc1 | – | inconclusive: 29.1%
73 | COc1ccc(CCNS(=O)(=O)c2cn(C)c(=O)n(C)c2=O)cc1OC | – | inactive: 10.1%
74 | CC(C)(C)NC(=O)C(c1ccc(F)cc1)N(Cc1ccco1)C(=O)c1csnn1 (stereo not drawn) | inconclusive: 31.6 µM [falling, partial curve] | –
75 | O=c1c(-c2ccc(Cl)cc2)nc2cnc(N3CCNCC3)nc2n1CCc1ccccc1 | inconclusive: 0.398 µM [rising, full curve] | –
76 | C#CCN1C(C)=C(C(=O)OC)[C@@H](c2cccc([N+](=O)[O-])c2)C(C(=O)OCC)=C1C | – | inactive: 5.91%
77 | CCOc1ccccc1NC(=O)Cn1nnc(C(=O)NCc2ccco2)c1N | inconclusive: 7.94 µM [rising, partial curve] | –
78 | Cc1cnc(NC(=O)CN2CCN(c3ccccn3)CC2)s1 | inconclusive: 12.6 µM [falling, partial curve] | –
